Conditions: Gallus gallus, 35 °C, GdnHCl, CD, Sodium acetate 0.1 M, reversible: Unknown

## Lysozyme C wild type (no sequence given)
pH 3.5
  denaturant m value: 2.71 kcal/mol/M
  denaturant midpoint (higher = more stable): 2.71 M
  unfolding free energy: 7.34 kcal/mol
pH 4.5
  denaturant m value: 2.71 kcal/mol/M
  denaturant midpoint (higher = more stable): 3.69 M
  unfolding free energy: 9.99 kcal/mol
pH 5
  denaturant m value: 2.71 kcal/mol/M
  denaturant midpoint (higher = more stable): 3.63 M
  unfolding free energy: 9.84 kcal/mol
pH 5.5
  denaturant m value: 2.71 kcal/mol/M
  denaturant midpoint (higher = more stable): 3.61 M
  unfolding free energy: 9.78 kcal/mol

Source: FireProtDB (doi:10.1021/bi00157a021)
